Laboratory results from the supplement of paper PMC4967469.
pIC50: −log10 of the molar value. IC50 is the fitted dose that halves viability relative to control wells, and lower means more sensitive; a fit beyond the top or the lowest dose is shown as a bound at that dose. AUC sums up the same curve from the lowest dose to the 256-fold higher top dose; the more sensitive the line, the further below 1. For part of these data: Where the top dose is marked as inferred, it is not printed in the source and was worked back from the curve model.

How the values were obtained:
Experiment in all cases: Viability of human cancer cell lines after 72 h of drug (GDSC screen)
PIK-93 = compound: CC(=O)Nc1nc(C)c(-c2ccc(Cl)c(S(=O)(=O)NCCO)c2)s1 [PIK-93]; settings: top dose 20 µM
Method: (§1)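 Human cancer cell lines in 384-well plates, medium with 10% serum, drug for 72 h over a 256-fold dose range (nine 2-fold or five 4-fold steps up to the top dose). Adherent lines were fixed and stained with the nucleic acid dye Syto60, suspension lines read with resazurin; signal relative to control wells, capped at 0 and 100%. One two-parameter sigmoid per drug and line, fitted in a mixed model over all curves with the slope shared within a line.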

piperlongumine = compound: COc1cc(/C=C/C(=O)N2CCC=CC2=O)cc(OC)c1OC [piperlongumine]; settings: top dose 10 µM
Method: as §1

GW 441756 = compound: Cn1cc(/C=C2\C(=O)Nc3cccnc32)c2ccccc21 [GW 441756]; settings: top dose 2 µM; top dose inferred
Method: as §1

| Cell Line | AUC (PIK-93) | pIC50 (PIK-93) | AUC (piperlongumine) | pIC50 (piperlongumine) | AUC (GW 441756) | pIC50 (GW 441756) |
| --- | --- | --- | --- | --- | --- | --- |
| JHH-6 (liver, adherent) | 0.891 | < 4.70 | 0.761 | 5.44 | 0.98 | < 5.70 |
| NCI-H2122 (lung adenocarcinoma, adherent) | 0.945 | < 4.70 | 0.793 | 5.37 | 0.875 | 5.76 |
| UM-UC-3 (bladder, adherent) | 0.685 | 5.40 | 0.666 | 5.76 | 0.953 | < 5.70 |
| NCI-H292 (lung adenocarcinoma, adherent) | 0.484 | 5.95 | 0.648 | 5.75 | 0.92 | < 5.70 |
| MCF7 (breast, adherent) | 0.986 | < 4.70 | 0.782 | 5.36 | 0.935 | < 5.70 |
| HMV-II (melanoma, adherent) | 0.855 | < 4.70 | 0.805 | 5.19 | 0.918 | < 5.70 |
| NCI-H441 (lung adenocarcinoma, adherent) | 0.962 | < 4.70 | 0.832 | < 5.00 | 0.981 | < 5.70 |
| SCC-4 (head and neck, adherent) | 0.879 | < 4.70 | 0.863 | < 5.00 | 0.968 | < 5.70 |
| UMC-11 (lung carcinoid, adherent) | 0.936 | < 4.70 | 0.912 | < 5.00 | 0.982 | < 5.70 |
| EFM-19 (breast, adherent) | 0.674 | 5.31 | 0.777 | 5.20 | 0.916 | < 5.70 |
| DMS-53 (small cell lung carcinoma, adherent) | 0.988 | < 4.70 | 0.867 | < 5.00 | 0.9 | < 5.70 |
| KYSE-70 (oesophagus, adherent) | 0.911 | < 4.70 | 0.959 | < 5.00 | 0.955 | < 5.70 |
| ACHN (kidney, adherent) | 0.877 | < 4.70 | 0.771 | 5.36 | 0.959 | < 5.70 |
| HCC38 (breast, adherent) | 0.834 | 4.84 | 0.865 | < 5.00 | 0.984 | < 5.70 |
| CAKI-1 (kidney, adherent) | 0.868 | < 4.70 | 0.739 | 5.36 | 0.957 | < 5.70 |
| U251 (glioma, adherent) | 0.84 | 4.89 | 0.698 | 5.66 | 0.981 | < 5.70 |

| Cell Line | AUC (PIK-93) | pIC50 (PIK-93) | AUC (piperlongumine) | pIC50 (piperlongumine) | AUC (GW 441756) | pIC50 (GW 441756) |
| --- | --- | --- | --- | --- | --- | --- |
| M14 (melanoma, adherent) | 0.768 | 5.10 | 0.809 | 5.25 | 0.987 | < 5.70 |
| LN-229 (glioma, adherent) | 0.972 | < 4.70 | 0.652 | 5.79 | 0.988 | < 5.70 |
| EPLC-272H (lung squamous cell carcinoma, adherent) | 0.721 | 5.24 | 0.777 | 5.34 | 0.956 | < 5.70 |
| U-2-OS (osteosarcoma, adherent) | 0.976 | < 4.70 | 0.728 | 5.53 | 0.98 | < 5.70 |
| A2058 (melanoma, adherent) | 0.978 | < 4.70 | 0.692 | 5.69 | 0.987 | < 5.70 |
| MDA-MB-175-VII (breast, adherent) | 0.851 | 4.75 | 0.861 | 5.00 | 0.906 | < 5.70 |
| G-MEL (melanoma, adherent) | 0.87 | 4.74 | 0.663 | 5.75 | 0.867 | 5.75 |
| AN3-CA (endometrium, adherent) | 0.792 | 5.00 | 0.659 | 5.74 | 0.974 | < 5.70 |
| MDA-MB-436 (breast, adherent) | 0.831 | 4.76 | 0.662 | 5.70 | 0.907 | < 5.70 |
| H2722 (mesothelioma, adherent) | 0.9 | < 4.70 | 0.791 | 5.26 | 0.76 | 6.08 |
| HCC70 (breast, adherent) | 0.753 | 5.18 | 0.772 | 5.42 | 0.986 | < 5.70 |
| VMRC-MELG (melanoma, adherent) | 0.937 | < 4.70 | 0.937 | < 5.00 | 0.943 | < 5.70 |
| HSC-4 (head and neck, adherent) | 0.906 | < 4.70 | 0.686 | 5.60 | 0.774 | 5.97 |
| PA-TU-8988T (pancreas, adherent) | 0.897 | < 4.70 | 0.727 | 5.56 | 0.968 | < 5.70 |
| NCI-H2029 (small cell lung carcinoma, adherent) | 0.947 | < 4.70 | 0.861 | 5.15 | 0.975 | < 5.70 |
| ABC-1 (lung adenocarcinoma, adherent) | 0.852 | < 4.70 | 0.669 | 5.69 | 0.818 | 5.84 |
